One block for each molecule: values may come before it.
Assays:
IL-17RB = target: T1, IL-17RB (Homo sapiens, UniProt Q9NRM6); experiment: ELISA, antigen binding specificity of bsBp (IL-17RB); design: key: −: no binding; +: weak; ++: moderate; +++: strong binding; N/A refers to no binding affinity; conditions: 33.5 nM; antigen coated at 2 μg/mL
T1 construct: purchased R&D systems
T1 sequence (Q9NRM6 18-502): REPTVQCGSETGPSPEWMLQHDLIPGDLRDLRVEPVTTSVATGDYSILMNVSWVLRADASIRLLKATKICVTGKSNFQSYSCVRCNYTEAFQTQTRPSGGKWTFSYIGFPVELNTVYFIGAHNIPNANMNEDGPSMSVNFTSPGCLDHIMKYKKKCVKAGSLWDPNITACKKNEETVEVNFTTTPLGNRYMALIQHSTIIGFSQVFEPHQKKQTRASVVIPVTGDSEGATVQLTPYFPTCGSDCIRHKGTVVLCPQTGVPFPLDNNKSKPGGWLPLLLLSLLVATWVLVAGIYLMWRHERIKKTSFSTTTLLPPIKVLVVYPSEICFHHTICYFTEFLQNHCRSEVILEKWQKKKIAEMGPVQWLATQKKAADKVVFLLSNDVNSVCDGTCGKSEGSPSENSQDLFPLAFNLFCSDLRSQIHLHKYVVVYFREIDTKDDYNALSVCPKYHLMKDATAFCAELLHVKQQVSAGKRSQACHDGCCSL
Method: (§1) Binding specificities of bsBp were evaluated by standard ELISA assays. Briefly, ELISA strips were coated with the respective target antigens, including IL17RB, IL-33, or TSLP (R&D systems) at a final concentration of 2 μg/mL. Bispecific antibodies were added at 33.5 nM to ELISA strips coated with the desired antigen. After incubation under room temperature for 2 hours, ELISA strips were washed five times with PBS. […] No result is provided for SM17-human TSLPR as the yield was too low to be detected.

IL-33 [1] = target: T2, IL-33 (Homo sapiens, UniProt O95760); experiment: ELISA, antigen binding specificity of bsBp (IL-33); design: key: −: no binding; +: weak; ++: moderate; +++: strong binding; N/A refers to no binding affinity; conditions: 33.5 nM; antigen coated at 2 μg/mL
T2 construct: purchased R&D systems
T2 sequence (O95760 95-270): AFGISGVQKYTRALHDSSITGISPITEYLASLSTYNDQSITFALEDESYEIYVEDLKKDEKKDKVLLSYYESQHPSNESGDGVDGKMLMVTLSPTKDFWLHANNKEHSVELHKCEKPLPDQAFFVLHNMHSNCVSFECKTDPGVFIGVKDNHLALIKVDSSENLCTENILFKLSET
Method: as §1

IL-33 [2] = target: T2, IL-33; experiment: Bio-Layer Interferometry (Octet), binding kinetics of bsBp to human IL-33; conditions: for Ka: bsBp or SM17 immobilized at 20 μg/mL
Method: The binding affinity of bsBp to the targeted alarmins was determined using a bio-Layer Interferometry analysis (Octet ReD96 system, Sartorius). bsBp or SM17 (20 μg/mL) was immobilized on biosensors via binding to anti-human Fab CH1 region; serially diluted human IL33 and TSLP (158.7 nM, 79.4 nM, 39.7 nM) (R&D systems) were added to plot the association and dissociation curve according to the manufacturer's specification. Biosensors immobilized with irrelevant antibody (SM03, anti-human CD22 chimeric IgG1 antibody, SinoMab BioScience Limited, 20 μg/mL) were used as control reference.

Human PBMCs = experiment: CCL8 and IFNγ release from human PBMC incubated with IL-12 and IL-33; format: cell-based; design: key to Intensity of specific cytokine inhibition, IFNγ / Intensity of specific cytokine inhibition, CCL-8: −: no binding; +: weak; ++: moderate; +++: strong binding; N/A refers to no binding affinity; conditions: 5 μg/ml; human PBMC
Method: Human PBMCs (4×10^5 per group, Ixcells) were incubated with IL-2 (10 unit/mL, PeproTech) and various alarmin/alarmin combinations to mimic the pro-inflammatory cytokines release during allergic diseases. For IL-5 and IL-13 releases, PBMCs were incubated with IL-2 and three alarmins (all 10 ng/ml) for three days. For CCL17 release, PBMC was incubated with TSLP (10 ng/ml) for 1 day. For CCL8 and IFNγ releases, PBMCs were incubated with IL-12 (10 ng/ml, Sino Biological) and IL-33 (10 ng/ml) for 1 day. Cells were pretreated with SM17 (5 μg/ml) or IgG4 isotype control (5 μg/ml) for an hour before the addition of cytokines.
Supernatants were collected and the cytokine concentration were measured by ELISA kits (R&D systems). These established assays were used to test the potency of and SM17 and bsBps. […] Results were expressed in absolute amount in pg/ml.
SM17, three different SM17-anti-IL33 bsBps and three different SM17-anti-TSLP bsBps (all at 5 μg/ml) were added to human PBMC cultures under conditions that shall induce the release of IFNγ, CCL8, CCL17 and IL-5 as described in Example 11 above. The levels of different cytokines and chemotactic factors in supernatant obtained in induced PBMC were evaluated using standard ELISA methods.

[3] = system: ILC2 population in human PBMC; experiment: ILC2 cell population in human PBMC culture (flow cytometry); format: cell-based; design: key: −: no inhibition; +: weak; ++: moderate; +++: strong inhibition; conditions: IL-2 (10 unit/mL) and three alarmins (10 ng/ml), 5 days
Description: (§2) While alarmins are known to work in concert to enhance ILC2 and Th2 cell functions such as increase in cell population, steroids such as Dexamethasone (Dex) can negate these effects, resulting in the mitigation of type 2 immune responses [Jia, Yi et al. American Journal Of Respiratory Cell And Molecular Biology, vol. 55, 5 (2016): 675-683]. ILC2 and Th2 cell population can be determined by flow cytometry (BD FACSVerse) following standard procedures known to those skilled in the art.

[4] = system: Th2 cell population in human PBMC; experiment: Th2 cell population in human PBMC culture (flow cytometry); format: cell-based; design: key: −: no inhibition; +: weak; ++: moderate; +++: strong inhibition; conditions: IL-2 (10 unit/mL) and three alarmins (10 ng/ml), 5 days
Description: as §2

TSLP = target: T3, TSLP (Homo sapiens, UniProt Q969D9); experiment: ELISA, antigen binding specificity of bsBp (TSLP); design: key: −: no binding; +: weak; ++: moderate; +++: strong binding; N/A refers to no binding affinity; conditions: 33.5 nM; antigen coated at 2 μg/mL
T3 construct: purchased R&D systems
Method: as §1

- Intensity of specific antigen binding, IL-17RB coated on ELISA strips (IL-17RB): +++
- Intensity of specific antigen binding, IL-33 coated on ELISA strips (IL-33 [1]): +++
- Kdis (IL-33 [2]): <1e-07 s⁻¹
- Ka (IL-33 [2]): 37300 M⁻¹ s⁻¹
B1: SM17-anti IL-33 2# bsBp: bispecific binding protein, SM17 IgG fused to anti-IL-33 scFv; HC SEQ ID NO: 64, LC SEQ ID NO: 33 (antibody)
heavy: MDLLHKNMKHLWFFLLLVAAPRWVLSQVQLVQSGAEVKKPGASVKVSCKASGYTFISYWMNWVRQAPGQGLEWMGRIDPYDSEIQYNQKFKDRVTMTRDTSISTAYMELSRLRSDDTAVYYCARSGGFDWFAYWGQGTLVTVSSASTKGPSVFPLAPCSRSTSESTAALGCLVKDYFPEPVTVSWNSGALTSGVHTFPAVLQSSGLYSLSSVVTVPSSSLGTKTYTCNVDHKPSNTKVDKRV[sequence of human IgG4 Fc with S228P (EU numbers) not given]GGGSGGGGSGGGGSEVQLVESGGNLEQPGGSLRLSCTASGFTFSRSAMNWVRRAPGKGLEWVSGISGSGGRTYYADSVKGRFTISRDNSKNTLYLQMNSLSAEDTAAYYCAKDSYTTSWYGGMDVWGHGTTVTVSSGGGGSGGGGSGGGGSGGGGSDIQMTQSPSSVSASVGDRVTITCRASQGIFSWLAWYQQKPGKAPKLLIYAASSLQSGVPSRFSGSGSGTDFTLTISSLQPEDFAIYYCQQANSVPITFGQGTRLEIK
light: DIQMTQSPSSLSASVGDRVTITCRASENINSNLAWYQQKPGKAPKLLLYDVTNLADGVPSRFSGSGSGTDYTLTISSLQPEDFATYYCQHFWGPPYTFGGGTKVEIKRTVAAPSVFIFPPSDEQLKSGTASVVCLLNNFYPREAKVQWKVDNALQSGNSQESVTEQDSKDSTYSLSSTLTLSKADYEKHKVYACEVTHQGLSSPVTKSFNRGEC
- Intensity of specific cytokine inhibition, IFNγ (Human PBMCs): ++
- Cell proliferation inhibition, ILC2 [3]: +++
- Cell proliferation inhibition, Th2 [4]: +++

- Intensity of specific antigen binding, TSLP coated on ELISA strips (TSLP): −
- Intensity of specific antigen binding, IL-17RB coated on ELISA strips (IL-17RB): +++
- Intensity of specific antigen binding, IL-33 coated on ELISA strips (IL-33 [1]): +++
- Kdis (IL-33 [2]): 0.000226 s⁻¹
- Ka (IL-33 [2]): 556000 M⁻¹ s⁻¹
B2: SM17-hST2: antibody-receptor fusion protein, SM17 fused with human ST2 extracellular domain; HC SEQ ID NO: 66, 74, LC SEQ ID NO: 33 (antibody)
heavy 1: MDLLHKNMKHLWFFLLLVAAPRWVLSQVQLVQSGAEVKKPGASVKVSCKASGYTFISYWMNWVRQAPGQGLEWMGRIDPYDSEIQYNQKFKDRVTMTRDTSISTAYMELSRLRSDDTAVYYCARSGGFDWFAYWGQGTLVTVSSASTKGPSVFPLAPCSRSTSESTAALGCLVKDYFPEPVTVSWNSGALTSGVHTFPAVLQSSGLYSLSSVVTVPSSSLGTKTYTCNVDHKPSNTKVDKRV[sequence of human IgG4 Fc with S228P (EU numbers) not given]GGGSGGGGSGGGGSKFSKQSWGLENEALIVRCPRQGKPSYTVDWYYSQTNKSIPTQERNRVFASGQLLKFLPAAVADSGIYTCIVRSPTFNRTGYANVTIYKKQSDCNVPDYLMYSTVSGSEKNSKIYCPTIDLYNWTAPLEWFKNCQALQGSRYRAHKSFLVIDNVMTEDAGDYTCKFIHNENGANYSVTATRSFTVKDEQGFSLFPVIGAPAQNEIKEVEIGKNANLTCSACFGKGTQFLAAVLWQLNGTKITDFGEPRIQQEEGQNQSFSNGLACLDMVLRIADVKEEDLLLQYDCLALNLHGLRRHTVRLSRKNPSKECF
heavy 2: MDLLHKNMKHLWFFLLLVAAPRWVLSQVQLVQSGAEVKKPGASVKVSCKASGYTFISYWMNWVRQAPGQGLEWMGRIDPYDSEIQYNQKFKDRVTMTRDTSISTAYMELSRLRSDDTAVYYCARSGGFDWFAYWGQGTLVTVSSASTKGPSVFPLAPCSRSTSESTAALGCLVKDYFPEPVTVSWNSGALTSGVHTFPAVLQSSGLYSLSSVVTVPSSSLGTKTYTCNVDHKPSNTKVDKRV[sequence of human IgG4 Fc with S228P (EU numbers) not given]GGGSGGGGSGGGGSKFSKQSWGLENEALIVRCPRQGKPSYTVDWYYSQTNKSIPTQERNRVFASGQLLKFLPAAVADSGIYTCIVRSPTFNRTGYANVTIYKKQSDCNVPDYLMYSTVSGSEKNSKIYCPTIDLYNWTAPLEWFKNCQALQGSRYRAHKSFLVIDNVMTEDAGDYTCKFIHNENGANYSVTATRSFTVKDEQGFSLFPVIGAPAQNEIKEVEIGKNANLTCSACFGKGTQFLAAVLWQLNGTKITDFGEPRIQQEEGQNQSFSNGLACLDMVLRIADVKEEDLLLQYDCLALNLHGLRRHTVRLSRKNPIDHHS
light: B1 light

From US20240409647A1, “BISPECIFIC BINDING PROTEINS AGAINST ALARMINS AND USES THEREOF” (SINOMAB BIOSCIENCE LIMITED, priority 2022, published 2024)
